Assay results published in PubChem BioAssay AID624296 (National Center for Advancing Translational Sciences (NCATS), 2012).
Among all 350,000 compounds or so, about 9,900 (2.8%) were called active. The shares of active, inactive and inconclusive entries below differ from those in the screen. The call rests on the fitted dose curve; in most records, active means well fitted activation curve with a large enough effect; inconclusive means small, poorly fitted or top-dose-only effect; inactive means no such curve, though single readings can be large or run the other way. No potency is given beside an inconclusive call; the fits are too rough.

assay: A quantitative high throughput screen for small molecules that induce DNA re-replication in MCF 10a normal breast cells.; further: nearly all actives have a fitted effect of over 50% in size; conditions: MCF 10A DNA re-replication, Hoechst nuclear intensity, 48 h; series mostly up to 46.1 µM
Potency means the concentration at half of the fitted maximal effect; tags describe the fitted curve by direction and shape.

Compound | Potency
COc1ccc(C(=O)Nc2cc(C(=O)c3ccccc3)c(C)oc2=O)cc1 | inconclusive [activator, single point]
CN1C(=O)C(N=Nc2ccc([N+](=O)[O-])cc2)SC1=S (stereo not drawn) | inconclusive [activator, single point]
Cc1cccc2cccnc12 | inconclusive [activator, single point]
CCN1CCCC1CNC(=O)c1cn(C)c2ccc(S(=O)(=O)N3CCCCCC3)cc2c1=O (stereo not drawn) | inactive
Nc1ncnc2c1ncn2[C@@H]1O[C@H](CNC(=O)[C@@H](N)C2CCCCC2)[C@@H](O)[C@H]1O | inconclusive [activator, full curve, poor fit]
CC1(C)CC2CC(C)(CN2C(=O)c2cc(-c3ccc(F)cc3)on2)C1 (stereo not drawn) | inconclusive [activator, full curve, poor fit]
O=C(CCc1ccc(O)c(O)c1)NNC(=S)NCCc1ccccc1 | inconclusive [activator, single point]
Cc1ccsc1/C=N/NC(=O)c1nnn(-c2nonc2N)c1-c1ccccc1 | inconclusive [activator, single point]
CCOc1cc(/C=C\[N+](=O)[O-])ccc1OCC(=O)Nc1ccccc1C | active: 2.91 µM
Cc1nc(S(=O)(=O)Cc2ccccc2Cl)nc2c1CCC2 | inconclusive [activator, single point]
O=c1c2ccccc2sc2ccc(C#CC3(O)CCCCC3)cc12 | inconclusive [activator, single point]
CCOC(=O)c1ccc(-n2c(CCC(=O)O)ccc2-c2ccccc2)cc1 | inconclusive [activator, partial curve]
O=C(Nc1c(Cl)cc(Cl)cc1-c1nc2ccccc2s1)c1ccc(Br)o1 | inconclusive [activator, full curve, poor fit]
Cc1cccc(C)c1C(OCCN(C)C)C1CCCCC1 (stereo not drawn) | inactive
CC(Oc1ccc2c3c(c(=O)oc2c1)CCCC3)C(=O)NCc1cccnc1 (stereo not drawn) | inactive
Cc1cc(CN2CCC(N3CCC(C(=O)NC4CC4)CC3)CC2)cc(C)c1O | inactive
CCn1c(SCC(=O)N2CCOCC2)nnc1-c1cccs1 | inconclusive [activator, single point]
CC1CCCCC1NC(=O)COC(=O)c1ccccc1NC(=O)c1ccco1 (stereo not drawn) | inconclusive [activator, single point]
COc1ccc(Nc2nc3c(C)cccc3cc2C#N)cc1 | inconclusive [activator, single point]
C[C@]1(C(=O)NCCCNc2ncc(C(F)(F)F)cc2Cl)C=C[C@@H](Cc2ccccc2)N1C(=O)c1ccccc1 | inconclusive [activator, partial curve, poor fit]
O=C(Nc1cccc(Cl)c1N1CCOCC1)c1ccco1 | inconclusive [activator, partial curve]
O=C(O)Cn1cnc2c(=S)nc[nH]c21 | inactive

Compound | Potency
CCCCCc1ccc(-c2cn(CN3C(=O)c4ccccc4C3=O)nn2)cc1 | inactive
C[C@@H](C(=O)Nc1ccc2ccccc2c1)[C@@H]1C[C@@]1(C)[C@@H](NC(=O)c1cnccn1)c1ccccc1 | inactive
Cc1ccc(S(=O)(=O)Nc2nc3ccccc3nc2NCC2CCCO2)cc1C (stereo not drawn) | inactive
Cc1ccc(OCc2ccc(C(=O)Nc3c(C)nn(Cc4c(F)c(F)c(F)c(F)c4F)c3C)o2)c([N+](=O)[O-])c1 | inactive
COc1ccc(-c2nnc(SCC(=O)c3cc(C)n(Cc4cccs4)c3C)o2)cc1 | inconclusive [activator, single point]
O=C(O)c1ccc(N/N=C/c2cn(Cc3ccc(F)cc3)c3ccccc23)cc1 | inconclusive [activator, single point]
COCCCNC(=O)C1CCN(S(=O)(=O)c2c(C)noc2/C=C\c2ccc(OC)cc2)CC1 | inconclusive [activator, single point]
C[C@H](CO)N1C[C@H](C)[C@@H](CN(C)Cc2ccc(Oc3ccccc3)cc2)Oc2c(NC(=O)c3ccncc3)cccc2C1=O | inactive
CCC1Sc2ccc(S(=O)(=O)N3CCN(c4ccccc4)CC3)cc2NC1=O (stereo not drawn) | active: 20.6 µM
Oc1cccc2ccc(/C=C/c3ccccc3Br)nc12 | inconclusive [activator, partial curve]
CCOC(=O)[C@@H]1CCNC[C@@H]1c1ccccc1 | inconclusive [activator, full curve]
COc1ccc(N2C(=O)N3[C@H](c4ccc(Br)cc4)[C@@H]4C(=O)N(C(C)(C)C)C(=O)[C@@H]4[C@]3(Cc3ccccc3)C2=O)cc1 | inactive
CC(=O)/C(=N\Nc1cccc(Cl)c1)Sc1nnc(-c2ccccc2)n1-c1ccccc1 | inconclusive [activator, partial curve, poor fit]
COc1nc2ccc(C)cc2cc1-c1noc(-c2ccccc2)n1 | inconclusive [activator, partial curve, poor fit]
Cc1cc(S(=O)(=O)NC(C)c2nnc3ccccn23)ccc1Br (stereo not drawn) | inactive
COc1ccc(-c2ccc(/C=C(\NC(=O)c3ccccc3)C(=O)N3CCOCC3)o2)cc1 | inconclusive [activator, partial curve, poor fit]
[N-]=[N+]=NC[C@H](Cc1ccccc1)N1CCN(Cc2ccccc2)CCC1=O | inactive
CCN1C(=O)[C@H]2[C@@H](c3ccc(-c4cccc(Cl)c4)c(OC)c3)N[C@@](CC(C)C)(C(=O)OC)[C@H]2C1=O | active: 5.8 µM
Cc1ccc(C(=O)OCC(=O)NCc2ccc(Cl)cc2Cl)o1 | inconclusive [activator, single point]
c1ccc(-c2nc(NCc3ccco3)c3ccccc3n2)cc1 | inconclusive [activator, single point]
COc1ccc([N+](=O)[O-])cc1NC(=O)CSc1ccc2ccccc2c1 | inconclusive [activator, partial curve, poor fit]
